# Experimental data as given in the supplement of paper PMC8728848.
# Some of the results follow.
# B1: rAAL (Agrocybe aegerita), Q6WY08 (protein)
# chain: MQGVNIYNISAGTSVDLAAPVTTGDIVTFFSSALNLNAGAGNPNNTTLNLFAENGAYLLHIAFRLQENVIIFNSRQPDGPWLVEQAVSDVANQFAGIDGKAMVTVFDHGDKYQVVINEKTVIQYTKQISGLTLSLSYNATEETSIFSTVVEAVTYTGLALEHHHHHH
# Columns and labels:
# Assay in all cases: glycan array binding signal (z-score within array); higher = stronger binding
# Conditions in all cases: glycan notation: IUPAC condensed, linker removed; mutation: R85A
# [1] = biological target: Neu5Ac(a2-6)Gal(b1-4)GlcNAc(b1-2)Man(a1-3)Man(b1-4)GlcNAc(b1-4)GlcNAc
# Procedure, shortened: (§1)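 The binding signal is a Z-score computed within each array. Data were drawn from 3228 arrays in the Consortium for Functional Glycomics database, restricted to those with a known protein sequence. Scores were averaged over arrays of the same protein sequence at different concentrations or buffers, and over linkers, and negative values can be taken as non-binding.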
# [2] = biological target: Neu5Ac(a2-6)Gal(b1-4)GlcNAc(b1-2)Man(a1-3)[Gal(b1-4)GlcNAc(b1-2)Man(a1-6)]Man(b1-4)GlcNAc(b1-4)GlcNAc
# Procedure, shortened: as §1
# [3] = biological target: Neu5Ac(a2-6)Gal(b1-4)GlcNAc(b1-2)Man(a1-3)[GlcNAc(b1-2)Man(a1-6)]Man(b1-4)GlcNAc(b1-4)GlcNAc
# Procedure, shortened: as §1
# [4] = biological target: Neu5Ac(a2-6)Gal(b1-4)GlcNAc(b1-2)Man(a1-3)[GlcNAc(b1-2)Man(b1-4)GlcNAc(b1-2)Man(a1-6)]Man(b1-4)GlcNAc(b1-4)GlcNAc
# Procedure, shortened: as §1
# [5] = biological target: Neu5Ac(a2-6)Gal(b1-4)GlcNAc(b1-2)Man(a1-3)[Man(a1-6)]Man(b1-4)GlcNAc(b1-4)GlcNAc
# Procedure, shortened: as §1
# [6] = biological target: Neu5Ac(a2-6)Gal(b1-4)GlcNAc(b1-2)Man(a1-3)[Neu5Ac(a2-6)Gal(b1-4)GlcNAc(b1-2)Man(a1-6)]Man(b1-4)GlcNAc(b1-4)GlcNAc
# Procedure, shortened: as §1
# [7] = biological target: Neu5Ac(a2-6)Gal(b1-4)GlcNAc(b1-2)Man(a1-6)Man(b1-4)GlcNAc(b1-4)GlcNAc
# Procedure, shortened: as §1
# [8] = biological target: Neu5Ac(a2-6)Gal(b1-4)GlcNAc(b1-2)Man(a1-6)[Gal(b1-4)GlcNAc(b1-2)Man(a1-3)]Man(b1-4)GlcNAc(b1-4)GlcNAc
# Procedure, shortened: as §1
# [9] = biological target: Neu5Ac(a2-6)Gal(b1-4)GlcNAc(b1-2)Man(a1-6)[GlcNAc(b1-2)Man(a1-3)]Man(b1-4)GlcNAc(b1-4)GlcNAc
# Procedure, shortened: as §1
# [10] = biological target: Neu5Ac(a2-6)Gal(b1-4)GlcNAc(b1-2)Man(a1-6)[Man(a1-3)]Man(b1-4)GlcNAc(b1-4)GlcNAc
# Procedure, shortened: as §1
# [11] = biological target: Neu5Ac(a2-6)Gal(b1-4)GlcNAc(b1-3)Gal(b1-3)GlcNAc
# Procedure, shortened: as §1
# [12] = biological target: Neu5Ac(a2-6)Gal(b1-4)GlcNAc(b1-3)Gal(b1-4)GlcNAc
# Procedure, shortened: as §1
# [13] = biological target: Neu5Ac(a2-6)Gal(b1-4)GlcNAc(b1-3)Gal(b1-4)GlcNAc(b1-3)Gal(b1-4)GlcNAc
# Procedure, shortened: as §1
# [14] = biological target: Neu5Ac(a2-6)Gal(b1-4)GlcNAc(b1-3)Gal(b1-4)[Fuc(a1-3)]GlcNAc(b1-3)Gal(b1-4)[Fuc(a1-3)]GlcNAc
# Procedure, shortened: as §1
# [15] = biological target: Neu5Ac(a2-6)Gal(b1-4)GlcNAc(b1-3)GalNAc
# Procedure, shortened: as §1
# [16] = biological target: Neu5Ac(a2-6)Gal(b1-4)GlcNAc6S
# Procedure, shortened: as §1
# Neu5Ac(a2-6)GalNAc = biological target: Neu5Ac(a2-6)GalNAc
# Procedure, shortened: as §1
# [17] = biological target: Neu5Ac(a2-6)GalNAc(b1-4)GlcNAc
# Procedure, shortened: as §1
# [18] = biological target: Neu5Ac(a2-6)GlcNAc(b1-4)GlcNAc
# Procedure, shortened: as §1
# [19] = biological target: Neu5Ac(a2-6)GlcNAc(b1-4)GlcNAc(b1-4)GlcNAc
# Procedure, shortened: as §1
# Neu5Ac(a2-8)Neu5Ac = biological target: Neu5Ac(a2-8)Neu5Ac
# Procedure, shortened: as §1
# [20] = biological target: Neu5Ac(a2-8)Neu5Ac(a2-3)Gal(b1-4)Glc
# Procedure, shortened: as §1
# [21] = biological target: Neu5Ac(a2-8)Neu5Ac(a2-3)[GalNAc(b1-4)]Gal(b1-4)Glc
# Procedure, shortened: as §1
# [22] = biological target: Neu5Ac(a2-8)Neu5Ac(a2-8)Neu5Ac
# Procedure, shortened: as §1
# [23] = biological target: Neu5Ac(a2-8)Neu5Ac(a2-8)Neu5Ac(a2-3)Gal(b1-4)Glc
# Procedure, shortened: as §1
# [24] = biological target: Neu5Ac(a2-8)Neu5Ac(a2-8)Neu5Ac(a2-3)[GalNAc(b1-4)]Gal(b1-4)Glc
# Procedure, shortened: as §1
# [25] = biological target: Neu5Ac(a2-8)Neu5Ac(a2-8)Neu5Ac(a2-8)Neu5Ac(a2-3)[GalNAc(b1-4)]Gal(b1-4)Glc
# Procedure, shortened: as §1
# [26] = biological target: Neu5Ac(b2-6)Gal(b1-4)GlcNAc
# Procedure, shortened: as §1
# Neu5Ac(b2-6)GalNAc = biological target: Neu5Ac(b2-6)GalNAc
# Procedure, shortened: as §1
# [27] = biological target: Neu5Ac9Ac(a2-3)Gal(b1-3)GlcNAc
# Procedure, shortened: as §1
# [28] = biological target: Neu5Ac9Ac(a2-3)Gal(b1-4)GlcNAc
# Procedure, shortened: as §1
# [29] = biological target: Neu5Ac9Ac(a2-6)Gal(b1-4)GlcNAc
# Procedure, shortened: as §1
# [30] = biological target: Neu5Gc(a2-3)Gal(b1-3)GlcNAc
# Procedure, shortened: as §1
# [31] = biological target: Neu5Gc(a2-3)Gal(b1-3)[Fuc(a1-4)]GlcNAc
# Procedure, shortened: as §1
# Neu5Gc(a2-3)Gal(b1-4)Glc = biological target: Neu5Gc(a2-3)Gal(b1-4)Glc
# Procedure, shortened: as §1
# [32] = biological target: Neu5Gc(a2-3)Gal(b1-4)GlcNAc
# Procedure, shortened: as §1
# [33] = biological target: Neu5Gc(a2-3)Gal(b1-4)[Fuc(a1-3)]GlcNAc
# Procedure, shortened: as §1
# [34] = biological target: Neu5Gc(a2-6)Gal(b1-4)GlcNAc
# Procedure, shortened: as §1
# Neu5Gc(a2-6)GalNAc = biological target: Neu5Gc(a2-6)GalNAc
# Procedure, shortened: as §1
# [35] = biological target: Neu5Gc(b2-6)Gal(b1-4)GlcNAc
# Procedure, shortened: as §1
binder,measurement,setting,value
B1,glycan array binding signal (z-score),[1],-0.124
same,glycan array binding signal (z-score),[2],-0.118
same,glycan array binding signal (z-score),[3],-0.133
same,glycan array binding signal (z-score),[4],-0.112
same,glycan array binding signal (z-score),[5],-0.139
same,glycan array binding signal (z-score),[6],-0.121
same,glycan array binding signal (z-score),[7],-0.136
same,glycan array binding signal (z-score),[8],-0.14
same,glycan array binding signal (z-score),[9],-0.138
same,glycan array binding signal (z-score),[10],-0.132
same,glycan array binding signal (z-score),[11],-0.135
same,glycan array binding signal (z-score),[12],-0.114
same,glycan array binding signal (z-score),[13],-0.127
same,glycan array binding signal (z-score),[14],-0.13
same,glycan array binding signal (z-score),[15],1.17
same,glycan array binding signal (z-score),[16],-0.149
same,glycan array binding signal (z-score),Neu5Ac(a2-6)GalNAc,-0.134
same,glycan array binding signal (z-score),[17],-0.132
same,glycan array binding signal (z-score),[18],-0.135
same,glycan array binding signal (z-score),[19],-0.128
same,glycan array binding signal (z-score),Neu5Ac(a2-8)Neu5Ac,-0.125
same,glycan array binding signal (z-score),[20],0.307
same,glycan array binding signal (z-score),[21],-0.136
same,glycan array binding signal (z-score),[22],-0.139
same,glycan array binding signal (z-score),[23],-0.084
same,glycan array binding signal (z-score),[24],-0.128
same,glycan array binding signal (z-score),[25],-0.125
same,glycan array binding signal (z-score),[26],-0.123
same,glycan array binding signal (z-score),Neu5Ac(b2-6)GalNAc,-0.13
same,glycan array binding signal (z-score),[27],-0.149
same,glycan array binding signal (z-score),[28],-0.129
same,glycan array binding signal (z-score),[29],-0.118
same,glycan array binding signal (z-score),[30],-0.119
same,glycan array binding signal (z-score),[31],-0.139
same,glycan array binding signal (z-score),Neu5Gc(a2-3)Gal(b1-4)Glc,-0.144
same,glycan array binding signal (z-score),[32],-0.13
same,glycan array binding signal (z-score),[33],-0.128
same,glycan array binding signal (z-score),[34],-0.132
same,glycan array binding signal (z-score),Neu5Gc(a2-6)GalNAc,-0.135
same,glycan array binding signal (z-score),[35],-0.106
